Assay results reported in patent US11351268B2, “FGF21 C-terminal peptide optimization” (INDIANA UNIVERSITY RESEARCH AND TECHNOLOGY CORPORATION, priority 2016, dated 2022).
Part of at least one peptide drawing is inferred or uncertain, most often the ends. Non-standard residues stand in square brackets, D forms with d. Residues, ends and D or L forms follow the SMILES beside them.

The compounds below were run against T1, Klotho β (KLB) (Homo sapiens, UniProt Q86Z14). Conditions: Table 3, D-amino acid scan; C25 = 100.
T1 construct: expressed in transfected cells; host or cells: HEK 293T (ATCC), pooled Zeocin-selected cells stably expressing hKLB from pcDNA3.1(+)
T1 sequence (Q86Z14 1-1044): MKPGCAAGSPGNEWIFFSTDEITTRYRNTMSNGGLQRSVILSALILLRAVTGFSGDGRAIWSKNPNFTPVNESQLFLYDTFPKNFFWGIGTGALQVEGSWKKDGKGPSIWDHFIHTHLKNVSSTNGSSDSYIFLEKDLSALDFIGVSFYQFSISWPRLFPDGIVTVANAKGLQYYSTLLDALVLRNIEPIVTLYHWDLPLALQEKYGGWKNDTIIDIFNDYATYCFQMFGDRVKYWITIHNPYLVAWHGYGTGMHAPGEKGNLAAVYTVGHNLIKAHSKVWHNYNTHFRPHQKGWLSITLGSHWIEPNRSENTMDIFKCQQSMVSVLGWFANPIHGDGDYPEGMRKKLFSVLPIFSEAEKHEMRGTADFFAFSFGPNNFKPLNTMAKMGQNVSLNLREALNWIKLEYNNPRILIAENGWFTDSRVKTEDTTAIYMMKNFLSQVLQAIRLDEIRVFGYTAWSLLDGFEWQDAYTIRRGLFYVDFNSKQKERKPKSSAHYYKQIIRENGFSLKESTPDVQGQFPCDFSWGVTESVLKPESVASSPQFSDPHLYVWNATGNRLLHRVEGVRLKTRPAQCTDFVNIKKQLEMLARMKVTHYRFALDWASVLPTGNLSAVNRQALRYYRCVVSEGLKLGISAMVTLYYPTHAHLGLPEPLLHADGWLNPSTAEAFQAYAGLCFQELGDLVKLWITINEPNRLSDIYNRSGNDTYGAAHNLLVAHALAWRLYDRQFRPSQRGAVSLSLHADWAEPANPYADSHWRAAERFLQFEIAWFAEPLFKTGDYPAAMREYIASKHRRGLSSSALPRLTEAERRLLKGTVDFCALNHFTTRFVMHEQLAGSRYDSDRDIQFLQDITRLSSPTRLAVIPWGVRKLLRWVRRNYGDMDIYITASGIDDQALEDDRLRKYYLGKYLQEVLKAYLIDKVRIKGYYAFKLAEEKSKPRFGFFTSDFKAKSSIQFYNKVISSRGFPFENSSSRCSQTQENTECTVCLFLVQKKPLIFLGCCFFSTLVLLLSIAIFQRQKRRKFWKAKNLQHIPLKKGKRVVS
Assay type: cell-based
Experimental: Cells were cultured in 10% Fetal Bovine Serum containing DMEM High glucose GLUTAMAX® at 37 C, 95% humidity, 5% CO2. For generating the cell line with stable expression, human KLB gene was synthesized by Genscript and subcloned into pcDNA3.1(+) with ZEOCIN® resistance vector (INVITROGEN®) by NheI and NotI restriction enzyme sites. HEK 293T cells were obtained from ATCC and were transiently transfected at 80% confluency using Lipofectamine 3000 (Invitrogen). Selection for KLB-expressing cells was initiated 48 hours post-transfection in the growth media containing 100 μg/ml of ZEOCIN® (Gibco) and continued for 4 weeks with fresh media added every third day. Human KLB expression in pooled cells was confirmed by Western blot and a functional FGF21 MAPK phosphorylation assay.
293 HEK cells expressing hKLB were plated to 90% confluency in 96 well plates coated with poly-D-Lysine. Cells were serum starved for three hours in 0.1% BSA containing media prior to stimulation with protein and/or an antagonist peptide for ten minutes at 37° C. The cell lysate was used for the detection of phospho-Erk1/2 levels by AlphaSureFire kit using the prescribed protocol. The degree of biochemical activation was recorded and analyzed using Origin software by logistic curve fitting. Tests at each concentration were done in triplicates, and the standard deviation is as shown in the graphs. The calculation of maximal activities was done keeping the FGF21 157-181 or FGF19 169-194 peptide activity as standard. The difference between the Erk1/2 phosphorylation signal for the highest (10 μM) and the lowest (0 μM) tested dose for native peptide was considered as 100% and accordingly all the other values were assigned.

Compound	% Activity vs C25
CSCC[C@H](NC(=O)[C@@H](CO)NC(=O)[C@H](CC(C)C)NC(=O)[C@@H]1CCCN1C(=O)[C@H](CC(=O)O)NC(=O)[C@H](CO)NC(=O)[C@H](CO)NC(=O)CNC(=O)[C@@H](NC(=O)[C@H](CC(=O)O)NC(=O)[C@@H]1CCCN1C(=O)[C@@H]1CCCN1)C(C)C)C(=O)N[C@H](C(=O)NCC(=O)N1CCC[C@H]1C(=O)N[C@@H](CO)C(=O)N[C@@H](CCC(N)=O)C(=O)NCC(=O)N[C@@H](CCCNC(=N)N)C(=O)N[C@@H](CO)C(=O)N1CCC[C@H]1C(=O)N[C@@H](CO)C(=O)N[C@@H](Cc1ccc(O)cc1)C(=O)N[C@@H](C)C(=O)N[C@@H](CO)C(N)=O)C(C)C [d11, PPDVG SSDPL sMVGP SQGRS PSYAS] (H-PPDVGSSDPL[dS]MVGPSQGRSPSYAS-NH2; N-terminus and C-terminus assumed)	596.16 ± 211.38%
CSCC[C@@H](NC(=O)[C@H](CO)NC(=O)[C@H](CC(C)C)NC(=O)[C@@H]1CCCN1C(=O)[C@H](CC(=O)O)NC(=O)[C@H](CO)NC(=O)[C@H](CO)NC(=O)CNC(=O)[C@@H](NC(=O)[C@H](CC(=O)O)NC(=O)[C@@H]1CCCN1C(=O)[C@@H]1CCCN1)C(C)C)C(=O)N[C@H](C(=O)NCC(=O)N1CCC[C@H]1C(=O)N[C@@H](CO)C(=O)N[C@@H](CCC(N)=O)C(=O)NCC(=O)N[C@@H](CCCNC(=N)N)C(=O)N[C@@H](CO)C(=O)N1CCC[C@H]1C(=O)N[C@@H](CO)C(=O)N[C@@H](Cc1ccc(O)cc1)C(=O)N[C@@H](C)C(=O)N[C@@H](CO)C(N)=O)C(C)C [d12, PPDVG SSDPL SmVGP SQGRS PSYAS] (H-PPDVGSSDPLS[dM]VGPSQGRSPSYAS-NH2)	Ambiguous
CSCC[C@H](NC(=O)[C@H](CO)NC(=O)[C@H](CC(C)C)NC(=O)[C@@H]1CCCN1C(=O)[C@H](CC(=O)O)NC(=O)[C@H](CO)NC(=O)[C@H](CO)NC(=O)CNC(=O)[C@@H](NC(=O)[C@H](CC(=O)O)NC(=O)[C@@H]1CCCN1C(=O)[C@@H]1CCCN1)C(C)C)C(=O)N[C@@H](C(=O)NCC(=O)N1CCC[C@H]1C(=O)N[C@@H](CO)C(=O)N[C@@H](CCC(N)=O)C(=O)NCC(=O)N[C@@H](CCCNC(=N)N)C(=O)N[C@@H](CO)C(=O)N1CCC[C@H]1C(=O)N[C@@H](CO)C(=O)N[C@@H](Cc1ccc(O)cc1)C(=O)N[C@@H](C)C(=O)N[C@@H](CO)C(N)=O)C(C)C [d13, PPDVG SSDPL SMvGP SQGRS PSYAS] (H-PPDVGSSDPLSM[dV]GPSQGRSPSYAS-NH2)	Ambiguous
CSCC[C@H](NC(=O)[C@H](CO)NC(=O)[C@H](CC(C)C)NC(=O)[C@@H]1CCCN1C(=O)[C@H](CC(=O)O)NC(=O)[C@H](CO)NC(=O)[C@H](CO)NC(=O)CNC(=O)[C@@H](NC(=O)[C@H](CC(=O)O)NC(=O)[C@@H]1CCCN1C(=O)[C@@H]1CCCN1)C(C)C)C(=O)N[C@H](C(=O)NCC(=O)N1CCC[C@@H]1C(=O)N[C@@H](CO)C(=O)N[C@@H](CCC(N)=O)C(=O)NCC(=O)N[C@@H](CCCNC(=N)N)C(=O)N[C@@H](CO)C(=O)N1CCC[C@H]1C(=O)N[C@@H](CO)C(=O)N[C@@H](Cc1ccc(O)cc1)C(=O)N[C@@H](C)C(=O)N[C@@H](CO)C(N)=O)C(C)C [d15, PPDVG SSDPL SMVGp SQGRS PSYAS] (H-PPDVGSSDPLSMVG[dP]SQGRSPSYAS-NH2; N-terminus and C-terminus assumed)	66.84 ± 34.79%
CSCC[C@H](NC(=O)[C@H](CO)NC(=O)[C@H](CC(C)C)NC(=O)[C@@H]1CCCN1C(=O)[C@H](CC(=O)O)NC(=O)[C@H](CO)NC(=O)[C@H](CO)NC(=O)CNC(=O)[C@@H](NC(=O)[C@H](CC(=O)O)NC(=O)[C@@H]1CCCN1C(=O)[C@@H]1CCCN1)C(C)C)C(=O)N[C@H](C(=O)NCC(=O)N1CCC[C@H]1C(=O)N[C@H](CO)C(=O)N[C@@H](CCC(N)=O)C(=O)NCC(=O)N[C@@H](CCCNC(=N)N)C(=O)N[C@@H](CO)C(=O)N1CCC[C@H]1C(=O)N[C@@H](CO)C(=O)N[C@@H](Cc1ccc(O)cc1)C(=O)N[C@@H](C)C(=O)N[C@@H](CO)C(N)=O)C(C)C [d16, PPDVG SSDPL SMVGP sQGRS PSYAS] (H-PPDVGSSDPLSMVGP[dS]QGRSPSYAS-NH2; N-terminus and C-terminus assumed)	45.98 ± 16.23%
CSCC[C@H](NC(=O)[C@H](CO)NC(=O)[C@H](CC(C)C)NC(=O)[C@@H]1CCCN1C(=O)[C@H](CC(=O)O)NC(=O)[C@H](CO)NC(=O)[C@H](CO)NC(=O)CNC(=O)[C@@H](NC(=O)[C@H](CC(=O)O)NC(=O)[C@@H]1CCCN1C(=O)[C@@H]1CCCN1)C(C)C)C(=O)N[C@H](C(=O)NCC(=O)N1CCC[C@H]1C(=O)N[C@@H](CO)C(=O)N[C@H](CCC(N)=O)C(=O)NCC(=O)N[C@@H](CCCNC(=N)N)C(=O)N[C@@H](CO)C(=O)N1CCC[C@H]1C(=O)N[C@@H](CO)C(=O)N[C@@H](Cc1ccc(O)cc1)C(=O)N[C@@H](C)C(=O)N[C@@H](CO)C(N)=O)C(C)C [d17, PPDVG SSDPL SMVGP SqGRS PSYAS] (H-PPDVGSSDPLSMVGPS[dQ]GRSPSYAS-NH2; N-terminus and C-terminus assumed)	90.34 ± 24.24%
CSCC[C@H](NC(=O)[C@H](CO)NC(=O)[C@H](CC(C)C)NC(=O)[C@@H]1CCCN1C(=O)[C@H](CC(=O)O)NC(=O)[C@H](CO)NC(=O)[C@H](CO)NC(=O)CNC(=O)[C@@H](NC(=O)[C@H](CC(=O)O)NC(=O)[C@@H]1CCCN1C(=O)[C@@H]1CCCN1)C(C)C)C(=O)N[C@H](C(=O)NCC(=O)N1CCC[C@H]1C(=O)N[C@@H](CO)C(=O)N[C@@H](CCC(N)=O)C(=O)NCC(=O)N[C@@H](CCCNC(=N)N)C(=O)N[C@H](CO)C(=O)N1CCC[C@H]1C(=O)N[C@@H](CO)C(=O)N[C@@H](Cc1ccc(O)cc1)C(=O)N[C@@H](C)C(=O)N[C@@H](CO)C(N)=O)C(C)C [d20, PPDVG SSDPL SMVGP SQGRs PSYAS] (H-PPDVGSSDPLSMVGPSQGR[dS]PSYAS-NH2; N-terminus and C-terminus assumed)	2.30 ± 1.83%
CSCC[C@H](NC(=O)[C@H](CO)NC(=O)[C@H](CC(C)C)NC(=O)[C@@H]1CCCN1C(=O)[C@H](CC(=O)O)NC(=O)[C@H](CO)NC(=O)[C@H](CO)NC(=O)CNC(=O)[C@@H](NC(=O)[C@H](CC(=O)O)NC(=O)[C@@H]1CCCN1C(=O)[C@@H]1CCCN1)C(C)C)C(=O)N[C@H](C(=O)NCC(=O)N1CCC[C@H]1C(=O)N[C@@H](CO)C(=O)N[C@@H](CCC(N)=O)C(=O)NCC(=O)N[C@@H](CCCNC(=N)N)C(=O)N[C@@H](CO)C(=O)N1CCC[C@H]1C(=O)N[C@H](CO)C(=O)N[C@@H](Cc1ccc(O)cc1)C(=O)N[C@@H](C)C(=O)N[C@@H](CO)C(N)=O)C(C)C [d22, PPDVG SSDPL SMVGP SQGRS PsYAS] (H-PPDVGSSDPLSMVGPSQGRSP[dS]YAS-NH2)	Ambiguous
CSCC[C@H](NC(=O)[C@H](CO)NC(=O)[C@H](CC(C)C)NC(=O)[C@@H]1CCCN1C(=O)[C@H](CC(=O)O)NC(=O)[C@H](CO)NC(=O)[C@H](CO)NC(=O)CNC(=O)[C@@H](NC(=O)[C@H](CC(=O)O)NC(=O)[C@@H]1CCCN1C(=O)[C@@H]1CCCN1)C(C)C)C(=O)N[C@H](C(=O)NCC(=O)N1CCC[C@H]1C(=O)N[C@@H](CO)C(=O)N[C@@H](CCC(N)=O)C(=O)NCC(=O)N[C@@H](CCCNC(=N)N)C(=O)N[C@@H](CO)C(=O)N1CCC[C@H]1C(=O)N[C@@H](CO)C(=O)N[C@H](Cc1ccc(O)cc1)C(=O)N[C@@H](C)C(=O)N[C@@H](CO)C(N)=O)C(C)C [d23, PPDVG SSDPL SMVGP SQGRS PSyAS] (H-PPDVGSSDPLSMVGPSQGRSPS[dY]AS-NH2)	Ambiguous

Same assay, conditions: relative to native C-terminal peptide

Compound	fold increase of antagonistic potency over the native peptide [fold]
CSCC[C@H](NC(=O)[C@@H](CO)NC(=O)[C@H](CC(C)C)NC(=O)[C@@H]1CCCN1C(=O)[C@H](CC(=O)O)NC(=O)[C@H](CO)NC(=O)[C@H](CO)NC(=O)CNC(=O)[C@@H](NC(=O)[C@H](CC(=O)O)NC(=O)[C@@H]1CCCN1C(=O)[C@@H]1CCCN1)C(C)C)C(=O)N[C@H](C(=O)NCC(=O)N1CCC[C@H]1C(=O)N[C@@H](CO)C(=O)N[C@@H](CCC(N)=O)C(=O)NCC(=O)N[C@@H](CCCNC(=N)N)C(=O)N[C@@H](CO)C(=O)N1CCC[C@H]1C(=O)N[C@@H](CO)C(=O)N[C@@H](Cc1ccc(O)cc1)C(=O)N[C@@H](C)C(=O)N[C@@H](CO)C(N)=O)C(C)C [d11, PPDVG SSDPL sMVGP SQGRS PSYAS] (H-PPDVGSSDPL[dS]MVGPSQGRSPSYAS-NH2; N-terminus and C-terminus assumed)	5
